According to the supplement of paper PMC10126150:
Sequences with one replicate were seen in a single cluster, so their values are uncertain.

Tested on: ATP
Test: switch fluorescence ratio, 500 uM ATP over buffer (Cy3 cluster intensity, sum of 5 cycles each) (fold (ratio)); higher = stronger signal-on switching upon ATP binding; sequences stand for … in TCGTCGGCAGCGTCAGATGTGTATAAGAGACAGTTTTTTTTTTTTTTTTTTTTTTTTT…TC
Conditions: aptamer strand: ATP DNA aptamer (quencher-CACCTGGGGGAGTATTGCGGAGGAAGG + anchor), 100 nM annealed; ATP concentration: 500 uM; one replicate
Outline: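 Switching-strand clusters labelled with Cy3 on a modified Illumina MiSeq flow-cell were annealed to 100 nM quencher-labelled ATP aptamer, imaged in selection buffer, and re-imaged after 15 min with 500 uM ATP at 22 °C. This was done over five cycles with NaOH stripping and re-annealing in between. The fluorescence ratio is summed target-cycle over summed buffer-cycle Cy3 intensity per cluster, averaged per switch-domain sequence, excluding clusters outside 100-1000 RFU.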
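Note: ATP exposure 15 min at 22 °C before imaging.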

Sequence | switch fluorescence ratio
ACGCGAGTTA | 1.03
ATCGTACGAC | 1.03
AGGTTTCGAA | 0.969
GACGATGTTC | 1.08
ATCGCAGCAC | 3.97
AGCTAGTTTG | 0.982
TACAATGGAA | 1.01
CTCAACCTCC | 2.11
GTACGTAGAC | 1.26
TACAATGTGA | 1.02
GTGACCAGAT | 1.02
GACATAGGGG | 1.01
AAGCCGGCTG | 1.01
ACCTAGGTCC | 1.08
ACTACCTC | 1.16
ATGCGAGTTT | 0.949
ATTTGCCGTC | 1.07
GTGTTGGGAA | 1.02
CTGAACTGCA | 1.28
AACATAACAG | 1.02
AATCGTTGTA | 0.999
ACCAGTC | 0.968
CAGCGCACTC | 2.68
TCCTTCAGCC | 1.04
AGTTGGCATG | 0.994
GTTAAACGGT | 1.01

Sequence | switch fluorescence ratio
GATTTAGCCT | 1.06
AGGTTGCCTC | 1.04
ACCGGGTAGA | 1
TGGCCCATGA | 1.04
TAATGCTCGT | 0.968
AATGTCCACG | 1.01
GAATCAGGTT | 1.01
ATATGTGCGC | 0.98
TATATGTTAG | 1.02
GGCTTAACGT | 0.995
TAAATAGGAG | 1.03
AGTTAGTGC | 1.03
AGCTGGGCTT | 0.949
CTTTTAAACG | 0.99
GATTGTAAGG | 0.989
TGTTAACAGC | 0.985
ATTTTTCAAT | 0.998
CCTCAGACAT | 2.91
AAGAATCTA | 0.985
CCCGTCAGCA | 1.23
CGGACGGTA | 1.14
ACCCCCGCG | 1.18
CCAGGGAAGT | 1.01
GCGGTGGACT | 1.01
GAGCCGAACA | 0.992
ATGATAGAGC | 0.937

Sequence | switch fluorescence ratio
AAGTCCGGTC | 1.05
TTCGCCGCTT | 1.06
TAACGCAGTA | 0.998
CCAGCAGGAA | 0.994
TCATCATCAA | 1.17
GGCGGGAGC | 0.974
ATAATAGGGG | 0.948
TGCTTGTATA | 1.02
ATTTAGGTCC | 1.03
AGAGACACAG | 1.05
GATGCCGTGC | 1.01
AAACGCTTAC | 2.47
TACTATCAC | 1.25
AGGCAGAGGC | 0.946
CGGAGAAAGC | 1.26
TTGGGTCGT | 0.963
CGGGACGCTT | 1
TGATGCATTT | 1.6
GACGCCAAGG | 1.1
AACTTAGTTA | 1
ATGTTACTGG | 1.02
TGGTGCGGCT | 1
AACTGATTGA | 1
TCTGTCGCCA | 1.02
CGACCTCTCG | 1.04
GAACGATATG | 1.06

Sequence | switch fluorescence ratio
TCATAGGAGT | 1.02
ACTCACAGAG | 1.01
TATGCAAACC | 1.12
TTTAATCGTA | 0.964
GGCAGGGTCG | 1.02
AGATCGTTAT | 0.979
GGCAGTTGTT | 0.958
CGTCATTTTT | 1
GGATTGGAGG | 1.02
CCGGTGGAGG | 0.987
GATCACCGGT | 1.01
ACAAAAGCTC | 1.01
GGCCGTTACA | 1.04
GGATTTGTAC | 1
GAGGAGCGGG | 1.05
GATTTAAATT | 1
TTCTCTGCCG | 1.11
TGTGGGGT | 1.01
TAAACCCATG | 1.01
AAGTGTAGTT | 1.01
CTCAATTGAA | 0.987
GTGAATCGTC | 1.03
TAATCCCCAG | 1.03
TGGCCCCTGG | 1.06
CAGCATGGTG | 1.05
AATCGTTCGT | 1.03

Sequence | switch fluorescence ratio
TGGACGGTTC | 1.04
ATTCATCGTT | 0.993
TTTTCGGTTC | 1.03
CTTGAGGAGG | 0.967
TTGTGTAATA | 1.14
TGCTAATGGC | 1
GCAATCCAC | 2.92
CCACGGTGCT | 2.15
TCCCAATAGT | 2.05
GGTTCAAAGG | 0.974
TAAGGTACTA | 1.02
TTATTAGGAG | 1.03
CACAGGTCCA | 1.07
CTGGGCTTGA | 0.943
GACGACACAT | 2.29
GTTGCGTGCA | 1.04
ATGCCTGTGG | 0.999
TGGTAAAGG | 0.998
GTTAACTAGT | 1
CAGTCGGGGG | 0.996
GTTGCAGACT | 1.15
AGGAGCGCCG | 0.944
CTTCGGGGCC | 1.86
CTGTCCGGAA | 2.02
ATGCCCGCGG | 1
CCCGTCTGGA | 0.955

Sequence | switch fluorescence ratio
GCCGTGTCAT | 0.966
AGAAGACCTC | 1.08
GGAGTGTGTC | 1.02
TGCTGAAGGT | 0.95
CAAGGGGAAT | 0.969
TACTAACTGG | 1.23
TACACAGTAG | 1.08
GGTGGATAGG | 0.965
TAGTAATTAC | 0.999
CTATGTGGTA | 1
TAGGAGGG | 1.02
TGGAAGCTGA | 0.994
TCTTATCTAG | 1.03
CATTCGTTTT | 0.962
AGGGGATTAA | 1.22
GCTCGCGGTG | 1.05
CGCCAATCGC | 2.5
TCGCGCCTTA | 1.06
GGAAGGGACT | 1.02
AGTGTCACTC | 1.06
CTCGGTAGTA | 1.01
TAACCACTCG | 0.99
GGGGACAGAC | 1.07
CGGGAATTCA | 1.04
ATAGTGTTGT | 0.922
CGGCTATAGG | 0.976

Sequence | switch fluorescence ratio
AAGGTAGCCC | 1.04
GGCTAATTGA | 0.964
CATGTGCCTG | 0.938
AATCTATAAA | 0.971
CCATACTGGG | 1.04
GTGATCAAG | 1.06
GGAATCGATG | 0.992
GTTCTATACC | 1.02
TTGATGTTTG | 0.984
ACGGAGAACT | 1.07
AACCACATGG | 1.08
ACGGAATCAT | 1.03
GGCTCTTTAG | 1.01
GCGGGCCAGG | 1.17
TAGGTCAGCC | 1.01
GCGTTTGGCG | 1.12
CGTGAGTTGT | 1.02
AAGTTATCG | 0.954
TGAGGTATAA | 0.984
TCATTTTCGC | 0.986
TCCTTTATAA | 1.04
CGCTTTGGAC | 1.99
CCAAGTCAGT | 1.07
AGTAGCTGGG | 0.97
ACATAAGGAT | 1.08
TCTAGGGATG | 1.02

Sequence | switch fluorescence ratio
TAGAGAGTAG | 0.965
GATGCGCTCT | 0.967
GCTCAATGTA | 0.955
GAGGGACAAG | 1.04
TCGGGTTAAG | 0.972
CATAGGGGGC | 1.02
TGCTGGCGCT | 0.95
AAAGGCCCTT | 1
GCGTAAGAAG | 1.03
CCTTTTCCAC | 1.04
ACGATTA | 1.03
TTTGTCTGTA | 0.974
TCGATTCCT | 1.04
TGGCAAAGAG | 1
ACAATCACC | 1.15
AGTTATCTGA | 0.991
CAAGTGTTTT | 1.03
TGTAGATGA | 1.01
GGAGTCTGGA | 0.976
